# Laboratory results taken from ChEMBL document CHEMBL4888484, “Replenishing the malaria drug discovery pipeline: Screening and hit evaluation of the MMV Hit Generation Library 1 (HGL1) against asexual blood stage Plasmodium falciparum ,using a nano luciferase reporter read-out” (2022).
# In all, about 150,000 compounds went through this assay and about 540 (0.36%) showed an effect of 50% or more. The list shows a part of the results.
# Tested on: Plasmodium falciparum
# Assay: Primary screen in NF54 nanoGlo assay, in single point, at 2uM, 72h; a lower Z score goes with more inhibition
# Type: functional, Erythrocyte
# Settings: timepoint 72 hour
Compound,% Inhibition [%],Z score
C[C@](O)(CC(=O)NCCC1=CCCCC1)C(F)(F)F,-6,1.03
CCNC(=O)N1CC(C(=O)NCc2ccc3c(c2)OCO3)C(c2ccc(OC)cc2OC)C1 (stereo not drawn),-11,1.04
Cc1cc(C)n2nc(CCCNC(=O)c3cnn(-c4cccc(Cl)c4)c3C(C)C)c(C#N)c2n1,-17,3.15
CCN(CC(=O)NC(C)C)Cc1nc(C)no1,-1,0.11
O=C1c2ccccc2C(=O)N1[C@H]1CCN(c2ccccn2)C1,-16,1.82
CC(C)N(CC(=O)N1CCn2cccc2[C@H]1c1ccccc1Cl)C(=O)c1cccc(F)c1,10,-1.28
c1ccc2oc(C(NC3CCOC3)C3CC3)cc2c1 (stereo not drawn),-11,0.99
CN1C(=O)NC2c3ccccc3O[C@@]1(C)C2C(=O)Nc1ccccc1 (stereo partly drawn),5,-0.68
O=C(CN(C(=O)Nc1ccccc1)C1CC1)N(CCc1c[nH]c2ccccc12)Cc1ccc(Cl)cc1,-7,0.94
CC1(C)[C@H](C(F)(F)F)CCN1C(=O)Nc1nc2ccccc2s1,-13,1.7
CCCc1cnc(C)nc1N1C[C@H]2CC[C@@H](C1)N(Cc1ccccn1)C2=O,-8,0.82
COc1cccc(CN(CC2(C#N)CC2)C2CCC(O)CC2)c1 (stereo not drawn),-2,0.31
CC(C)n1cc(NC(=O)CCc2cccnc2)cn1,-21,1.91
Cc1ccc(NC(=O)c2c(C)oc3nc(C)nc(N4CCOCC4)c23)c(C)c1,1,-0.12
CCc1nc(C)ccc1OCc1ncnn1C,27,-3.03
CC(=O)[C@@H]1C[C@H](C(=O)NCc2nnc3ccccn23)C1(C)C,-8,1.26
O=C(c1cccs1)N1CC(C(=O)N2CCC(O)CC2)C1,-8,1.08
Cn1c(CCc2ccc(NC(=O)c3cccc(Cl)c3)cc2)nc2ccccc21,-11,1.14
O=C(Cc1ccco1)Nc1ccncc1F,-1,0.1
CC(CC(=O)O)(C(=O)N1CC[C@H](OC(F)F)C1)C1CCCCC1 (stereo partly drawn),-10,1.24
Cc1cccc(Cl)c1C(=O)NCC1(C)COC1,1,-0.1
CN(C[C@H]1Cc2ccccc2CO1)C(=O)c1ccoc1,-10,1.18

Compound,% Inhibition [%],Z score
CCc1ccc([C@@H]2CN(C(=O)Cc3noc4ccccc34)CCO2)cc1,1,-0.14
CCC1CN(C(=O)c2cnn3ccc(N)cc23)CC(C)O1 (stereo not drawn),1,-0.18
COc1ccc([C@@H]2CCCN2c2ccc(C(=O)NC(C)C)nn2)cc1,-7,0.74
CN1CCC[C@H](CNC(=O)c2cccc3c(=O)c4ccccc4[nH]c23)C1,-11,1.45
O=C(Cc1ccc(F)cc1)NCC1(CO)CCC1,-8,0.77
COCc1nc(CNC(=O)c2nnc(C(C)C)s2)cs1,-8,1.39
COC[C@H]1CCCCN1C(=O)NCc1snnc1C,28,-3.16
C[C@@H](CO)NC(=O)C(=O)Nc1cccc(C(C)(C)O)c1,12,-1.53
C[C@@H](C(=O)c1ccc(F)cc1)n1cnc(-c2ccc(F)cc2)cc1=O,12,-1.53
CCC(=O)N1CCCOC12CN(C(=O)OC(C)(C)C)C2,7,-0.75
O=C(C[C@H](O)c1ccccc1)N1Cc2cccc(Br)c2C1,-12,1.29
C[C@@H](CC(=O)Nc1cccc2c1C(=O)NC2)N1CCCCC1=O,9,-1.03
CC[C@H]1c2cccn2CCN1C(=O)Cc1sc(C)nc1C,-13,1.84
c1cc2c(cc1CNCC1CCCCC1)OCO2,3,-0.38
Cc1noc(C)c1C(=O)N1CCc2[nH]ncc2C1,-14,1.63
Cc1ncsc1CN1CCC(OC2CCCCC2)CC1,-4,0.48
CCNC(=O)C(C)(C)CNc1ccc(Br)cn1,5,-0.98
O=C(O)c1cccc(CN2CCc3nc(C4CC4)ncc3C2)c1,-13,1.45
Cn1ccc(CN2CCC[C@H](c3cc(C(F)(F)F)[nH]n3)C2)cc1=O,1,-0.11
C[C@@H](NCCc1cnn(C)c1)c1ccc(Br)cc1,-10,0.97
Cc1ccc(C(=O)N(Cc2cccc(F)c2)c2ccc(CC(=O)N[C@@H](C)c3ccccc3)cc2)cc1,74,-8.26
CS(=O)(=O)[C@H]1CCCN(C(=O)c2ccc3c(c2)CCCCC3=O)CC1,-5,0.54
